In all, about 150,000 compounds went through this assay and about 540 (0.36%) showed an effect of 50% or more. The list shows a part of the results.

What is called % Inhibition is the relative decrease from the control value, in per cent.

The assay concerns Plasmodium falciparum. The experiment in a line: Primary screen in NF54 nanoGlo assay, in single point, at 2uM, 72h; a lower Z score goes with more inhibition. Type of assay: functional, Erythrocyte. The following applies: timepoint 72 hour.
For `Cc1cc(C(=O)N[C@H]2CCOC[C@@H]2OCc2ccccc2)c(C)n1C`, the “% Inhibition” value amounted to 8% and the Z score is recorded as -1.34.

`Cc1ccc(F)c(N[C@@H]2CCNC(=O)CC2)c1`: the “% Inhibition” value is reported as -12% and the Z score amounted to 1.76.

Turning to `Cc1cc(C2CCC2)nc(N2CC[C@H](NC(=O)c3cnccn3)[C@@H](O)C2)n1`, the “% Inhibition” value was -8% and the Z score is given as 1.16.

Regarding `CC[C@@H](Cn1ccnc1)NS(=O)(=O)c1c(C)noc1C`, the “% Inhibition” value came out at 0% and the Z score was -0.03.

On to `CC1(C)CC(NS(C)(=O)=O)CC(C)(C)N1O`, for which the “% Inhibition” value is given as -15% and the Z score was 2.14.

Turning to `Cn1cccc(C(=O)N[C@@H]2COCC[C@@H]2Oc2cccc(F)c2)c1=O`, the “% Inhibition” value is on record as 7% and the Z score was -1.11.

As for `CCc1cccnc1C(=O)NC[C@H]1CCCO1`, the “% Inhibition” value is -5% and the Z score was 0.84.

As to `Cc1nc(CNC(=O)c2cccc(-n3cccn3)n2)oc1C`, the “% Inhibition” value worked out at 4% and the Z score was -0.63.

As to `Cc1cnn(CCCNC(=O)c2cccc3c2OCC3)c1`, the “% Inhibition” value was -12% and the Z score came out at 1.64.

Consider `COc1ccc(-c2cn(Cc3cncn3CC(C)C)nn2)cn1`, for which the “% Inhibition” value was -14% and the Z score worked out at 1.57.

Consider `Cc1ccccc1CC(=O)N[C@@H]1c2ccccc2OC[C@@H]1CO`, for which the “% Inhibition” value is given as -11% and the Z score turned out to be 1.37.

On to `CCC(C)(C)NC(=O)CC(=O)Nc1nccs1`, for which the “% Inhibition” value is -8% and the Z score is 1.03.

`CC(C)(C)c1nc(O)c(Br)c(C(C)(C)C)n1`: the “% Inhibition” value is given as -16% and the Z score turned out to be 1.83.

`COCCNC(=O)[C@@H](C)C1CC[C@@]2(C)CC[C@H](NC(=O)c3ccncc3)[C@@H](C)[C@@H]2[C@H]1O` (stereo partly drawn): the “% Inhibition” value was -2% and the Z score was found to be 0.36.

Consider `COC(=O)C(NCc1ccc(F)cc1F)C(C)O` (stereo not drawn), for which the “% Inhibition” value is recorded as -16% and the Z score is 2.48.

As for `CCc1cc(N2CCO[C@H](c3ccccc3)C2)n2nccc2n1`, the “% Inhibition” value was found to be 9% and the Z score is -1.18.

In the case of `COc1cccc([C@H]2OCCn3c(-c4ccc(Cl)cc4)c4c(=O)n(C)c(=O)n(C)c4c32)c1O`, the “% Inhibition” value is 9% and the Z score is listed as -1.13.

Consider `CNC(=O)[C@@H](NCc1nc2cc(C)ccc2s1)C(C)C`, for which the “% Inhibition” value is given as -7% and the Z score is given as 0.65.

Consider `Cc1nc(CCN)cc(N2CCC[C@H]2c2nc(-c3ccccc3)no2)n1`, for which the “% Inhibition” value is -9% and the Z score is listed as 0.93.

`CCn1c(=O)c2c(ncn2CC(=O)c2ccc(C)cc2)n(-c2ccc(F)cc2F)c1=O`: the “% Inhibition” value is reported as -6% and the Z score came to 1.01.

As to `OCCO[C@H]1C[C@@H](O)C12CCN(Cc1coc(-c3ccccc3)n1)CC2`, the “% Inhibition” value is given as -1% and the Z score turned out to be 0.23.

As for `Cc1cc(Cl)ccc1C(=O)Nc1ccc(CN2CCCC2=O)cc1`, the “% Inhibition” value is recorded as -12% and the Z score is reported as 1.36.

`CCN(CC)S(=O)(=O)c1ccc(N2CCCC2)c(C(=O)OCC(=O)Nc2cc(C)on2)c1`: the “% Inhibition” value is -5% and the Z score was 0.8.

`Cc1ccc(-c2ccc3nncn3n2)cc1S(=O)(=O)Nc1ccc(Cl)cc1`: the “% Inhibition” value was -20% and the Z score amounted to 2.69.

Turning to `COc1cc(OC)cc(-c2nn(CN(C)CC(=O)NC(C)(C)C)c(=S)o2)c1`, the “% Inhibition” value is 9% and the Z score is -1.11.

Take `COc1ccc2[nH]c(CN3C[C@@H]4CC[C@H]3CN(CC(=O)N(C)C)C4)c(C)c2c1`: the “% Inhibition” value is -18% and the Z score amounted to 1.7.

With `c1ccc(CCCCn2ccnc2-c2cc3n(n2)CCCNC3)cc1`, the “% Inhibition” value was 3% and the Z score is -0.53.

For the compound `CCCN(Cc1cccc(Cl)c1)C(=O)CCc1n[nH]c(N)n1`, the “% Inhibition” value was -4% and the Z score was found to be 0.61.

As to `CC(=O)N1CC(N[C@@H](C)c2cc3ccncc3s2)C1`, the “% Inhibition” value is -5% and the Z score stood at 0.85.

Take `Cc1ccc(Br)c(C(=O)O)c1N`: the “% Inhibition” value was -11% and the Z score stood at 2.14.

In the case of `CCC1CCCN1C(=O)[C@H]1CCCN1C(C)=O` (stereo partly drawn), the “% Inhibition” value was -1% and the Z score was determined as 0.14.

For `CN(Cc1csc(-c2ccccc2)n1)C(=O)c1ccc2nonc2c1`, the “% Inhibition” value is listed as -2% and the Z score stood at 0.43.

For the compound `CN1CCNC[C@H]1c1ccccc1Cl`, the “% Inhibition” value was determined as 5% and the Z score was -1.01.

Consider `CCN1CCN(C(=O)c2c(CC3CCCC3)n(CCOC)c(C)cc2=O)CC1`, for which the “% Inhibition” value is on record as -9% and the Z score was 1.1.

`Cc1nc(CCNC(=O)CCC2CCCC2)no1`: the “% Inhibition” value was found to be 5% and the Z score is on record as -0.6.

Consider `COc1ccc(S(=O)(=O)N2CCOCC2)cc1NC(=O)Cc1ccc(Br)cc1`, for which the “% Inhibition” value is -5% and the Z score is on record as 0.77.

`CCn1cc(NC(=O)C2CCN(S(=O)(=O)c3c(C)nn(C)c3Cl)CC2)cn1`: the “% Inhibition” value was -10% and the Z score was 1.61.

As to `COc1cccc(-n2cc(CNC(=O)NCc3ccc(NC(=O)C(C)C)cc3)nn2)c1`, the “% Inhibition” value is 11% and the Z score is -1.37.

Regarding `CCC(NC(=O)NC1CCOC(c2ccccc2)C1)c1nccs1` (stereo not drawn), the “% Inhibition” value is recorded as -4% and the Z score is listed as 0.45.

In the case of `Cc1cc(C(=O)N2CC[C@H](Oc3cncc(N(C)C)n3)C2)c(C)o1`, the “% Inhibition” value is reported as -9% and the Z score is 0.99.

Take `O=C(c1ccc(F)c(Cl)c1)N1CCCC[C@@H]1CCN1CCCC1`: the “% Inhibition” value was 1% and the Z score is -0.16.

As to `CC(C)c1csc(-c2nnsc2N)n1`, the “% Inhibition” value is -3% and the Z score is recorded as 0.39.

On to `O=C(CCN1CCN(S(=O)(=O)c2ccccc2F)CC1)N[C@H](c1ccccc1)c1cccs1`, for which the “% Inhibition” value is on record as 1% and the Z score is listed as -0.12.

With `COCCN(C)C(=O)Nc1ccc(C)cn1`, the “% Inhibition” value was -4% and the Z score is listed as 0.35.

On to `C[C@H](C(=O)NCCN1CCOCC1)C1CC[C@@]2(C)Cc3sc(-c4ccccc4)nc3[C@@H](C)[C@@H]2[C@H]1O` (stereo partly drawn), for which the “% Inhibition” value turned out to be 21% and the Z score is listed as -2.46.

Consider `O=S(=O)(Cc1ccccc1F)N1CCCC[C@H]1c1nnc(-c2cnccn2)[nH]1`, for which the “% Inhibition” value is 0% and the Z score was -0.01.

Consider `COc1cc(Cl)c(S(=O)(=O)N(C)c2cnccn2)cc1OC`, for which the “% Inhibition” value stood at 0% and the Z score is on record as -0.08.

As for `Cn1cc(-c2ccc(C(=O)c3ncc[nH]3)cc2)cn1`, the “% Inhibition” value is -2% and the Z score came to 0.46.

Turning to `CCCCC1CCCC1NC1CCN(C)C1=O` (stereo not drawn), the “% Inhibition” value stood at 1% and the Z score was -0.18.

With `CC(C)(C)C[C@H](NC(=O)N[C@H]1CC[C@@H](CO)CC1)C(F)(F)F`, the “% Inhibition” value came to 4% and the Z score is listed as -0.48.

Turning to `CN1C(=O)C(C)(C)c2cc(S(=O)(=O)N3CCC[C@H](C(=O)NCc4cccnc4)C3)ccc21`, the “% Inhibition” value was -4% and the Z score is listed as 0.81.

In the case of `O=C(N[C@@H]1CN(Cc2ccccn2)C[C@H]1CO)c1ccco1`, the “% Inhibition” value is reported as -13% and the Z score turned out to be 1.83.

Consider `c1ccc(-c2cc(N3CCN(c4ccccn4)CC3)nn2-c2ccccc2)cc1`, for which the “% Inhibition” value came to 2% and the Z score is given as -0.25.

As for `COc1ccc(OC)c(C(=O)N2C[C@H]3CC[C@@H](C2)N(CC2CC2)C3=O)c1`, the “% Inhibition” value is reported as -10% and the Z score is 1.96.

These data come from ChEMBL document CHEMBL4888484, “Replenishing the malaria drug discovery pipeline: Screening and hit evaluation of the MMV Hit Generation Library 1 (HGL1) against asexual blood stage Plasmodium falciparum ,using a nano luciferase reporter read-out” (2022).
